Experimental data as given in paper PMC3551298 (Arteriosclerosis, thrombosis, and vascular biology, 2012).

B1: TSG-6_(Y94F) mutant (natural protein)
chain: not shown
B2: TSG-6E183S mutant (natural protein)
chain: not shown
B3: TSG-6_(Y47F) mutant (natural protein)
chain: not shown
B4: Link module domain of TSG-6 (Link_TSG6) (domain or fragment)
chain: not shown

Target: long pentraxin 3 (PTX3), full length (human, UniProt P26022 18-381)
Experiment: SPR

Chain of UniProt P26022 (P26022 18-381): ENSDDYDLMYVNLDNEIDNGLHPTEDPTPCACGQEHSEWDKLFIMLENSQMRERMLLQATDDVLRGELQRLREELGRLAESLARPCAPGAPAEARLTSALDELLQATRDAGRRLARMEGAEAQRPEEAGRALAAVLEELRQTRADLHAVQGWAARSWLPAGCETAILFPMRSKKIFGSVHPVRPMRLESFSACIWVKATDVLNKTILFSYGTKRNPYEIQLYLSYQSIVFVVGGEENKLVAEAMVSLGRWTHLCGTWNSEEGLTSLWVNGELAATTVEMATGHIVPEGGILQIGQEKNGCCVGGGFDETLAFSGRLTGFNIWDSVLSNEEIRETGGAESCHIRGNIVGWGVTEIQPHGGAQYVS

binding result | further results | Binder
binds |  | B1
binds |  | B2
 | fold lower affinity than wildtype TSG-6: ~6 fold | B3
 | Kd: 648 nM | B4
